Source: the supplement of paper PMC10670038
Where a name gives a salt, the structure may show the parent alone. ± gives the standard deviation of the averaged measurements. The full ranking holds about 2,000 compounds; the median of “relative cell viability vs DMSO, compound + 0.2 uM CuET” is about 1, and the lowest 2% start at about 0.25. The list shows a part of the results.

tested on: TE10; assay: relative cell viability vs DMSO, compound + 0.2 uM CuET (fraction); TE10 is an esophageal squamous carcinoma line; higher = less cytotoxic; details: 2 µM; co-treatment: CuET (bis(diethyldithiocarbamate)copper) 0.2 uM; 48 h
Method: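 TE10 ESCC cells (1,000/well, 384-well plates) were treated with Selleck bioactive library compounds at 2 uM combined with 0.2 uM CuET (copper diethyldithiocarbamate) for 48 h. Viability was read by CellTiter-Glo and expressed relative to DMSO wells. Two technical replicates (A, B).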

Structure (SMILES)	relative cell viability
NC(=O)c1cccc(-c2cccc(OC(=O)NC3CCCCC3)c2)c1	1.15 ± 0.11
NC(=O)c1cnccn1 [Pyrazinamide]	0.981 ± 0.086
COc1cc2nc(N3CCCC3)nc(NCCCCCN3CCCC3)c2cc1OC	1.07 ± 0.058
Nc1nc(N)c(N=O)c(OCC2CCCCC2)n1	0.991 ± 0.11
C#Cc1cccc(Nc2ncnc3cc(OCCOC)c(OCCO)cc23)c1	1.02 ± 0.013
Cn1cnc2c(F)c(Nc3ccc(Br)cc3F)c(C(=O)NOCCO)cc21	1.037 ± 0.0069
CCCCCCCCCCCCCCCCn1cc[n+](Cc2ccccc2)c1C	0.659 ± 0.018
Cc1cnc(-c2ccccc2C(C)C)nc1NCc1ccc(-n2ccnn2)cc1	1.29 ± 0.097
Nc1ccc(-c2ccc3ncc4ccc(=O)n(-c5cccc(C(F)(F)F)c5)c4c3c2)cn1 [Torin 2]	0.569 ± 0.16
CSc1nc2cc(Cl)c(Oc3cccc(Cl)c3Cl)cc2[nH]1 [Triclabendazole]	1.27 ± 0.16
Cc1cc2c(s1)Nc1ccccc1N=C2N1CCN(C)CC1 [Olanzapine]	1.02 ± 0.046
CC(=NNC(=S)N1CCC1)c1ccccn1	1.04 ± 0.0018
CN1C(=O)C(Cc2c[nH]c3ccccc23)NC1=S (centres undefined) [Necrostatin-1]	1.05 ± 0.077
O=S(=O)(O)Oc1ccc(C(c2ccc(OS(=O)(=O)O)cc2)c2ccccn2)cc1 [Sodium Picosulfate]	1.16 ± 0.017
CCn1c(-c2nonc2N)nc2c(C#CC(C)(C)O)ncc(OC[C@H]3CCCNC3)c21	0.844 ± 0.085
OCCOc1ccc(/C(=C(/CCCl)c2ccccc2)c2ccccc2)cc1 [Ospemifene]	1.08 ± 0.085
CC(C)OC(=O)C(C)(C)Oc1ccc(C(=O)c2ccc(Cl)cc2)cc1 [Fenofibrate]	1.01 ± 0.024
Cn1cc(/C=C2\C(=O)Nc3cccnc32)c2ccccc21	1.22 ± 0.058
Cc1ccc(NC(=O)C2(c3ccc4c(c3)OC(F)(F)O4)CC2)nc1-c1cccc(C(=O)O)c1 [VX-809 (Lumacaftor)]	0.959 ± 0.096
CC(C)(C)c1ccc(S(=O)(=O)/C=C/C#N)cc1	0.107 ± 0.0014
CNC(=O)c1cc(Oc2ccc3nc(N[C@@H]4CCCC[C@H]4O)sc3c2)ccn1	0.909 ± 0.12
CC(=O)c1c(C)c2cnc(Nc3ccc(N4CCNCC4)cn3)nc2n(C2CCCC2)c1=O	1.33 ± 0.026
CCCNC(=O)Nc1ccc(Oc2ncnc3cc(OC)c(OC)cc23)cc1Cl	1.06 ± 0.1
C[C@@H](O[C@H]1OCCN(Cc2n[nH]c(=O)[nH]2)[C@H]1c1ccc(F)cc1)c1cc(C(F)(F)F)cc(C(F)(F)F)c1 [Aprepitant]	1.08 ± 0.14
NC(=O)c1ccc(-c2nc(-c3ccccn3)c(-c3ccc4c(c3)OCO4)[nH]2)cc1	1.05 ± 0.12

Structure (SMILES)	relative cell viability
Cc1cn(-c2cc(NC(=O)c3ccc(C)c(Nc4nccc(-c5cccnc5)n4)c3)cc(C(F)(F)F)c2)cn1 [Nilotinib (AMN-107)]	0.83 ± 0.047
CN/C(=N\CCSCc1nc[nH]c1C)NC#N [Cimetidine]	0.9836 ± 0.0097
COc1ccc(C2=N[C@@H](c3ccc(Cl)cc3)[C@@H](c3ccc(Cl)cc3)N2C(=O)N2CCNC(=O)C2)c(OC(C)C)c1 [Nutlin-3]	1.12 ± 0.02
C/C(=C\C(=O)OCCCCCCCCC(=O)O)C[C@@H]1OC[C@H](C[C@@H]2O[C@H]2[C@@H](C)[C@H](C)O)[C@@H](O)[C@H]1O [Mupirocin]	1.44 ± 0.062
C=C1c2cccc(O)c2C(O)=C2C(=O)[C@]3(O)C(O)=C(C(N)=O)C(=O)[C@@H](N(C)C)[C@@H]3[C@@H](O)[C@H]12 [Methacycline HCl]	1.43 ± 0.15
O=C(O)c1cc(/N=N/c2ccc(S(=O)(=O)Nc3ccccn3)cc2)ccc1O [Sulfasalazine]	1.13 ± 0.078
NC(=O)c1ccc(I)c([N+](=O)[O-])c1 [Iniparib (BSI-201)]	1.07 ± 0.099
CCOC(=O)[C@H](CCc1ccccc1)N[C@@H](C)C(=O)N1C(=O)N(C)C[C@H]1C(=O)O [Imidapril HCl]	1.07 ± 0.028
C[C@@H]1C[C@H]2[C@@H]3CCC4=CC(=O)C=C[C@]4(C)[C@@]3(Cl)[C@@H](O)C[C@]2(C)[C@@]1(OC(=O)c1ccco1)C(=O)CCl [Mometasone furoate]	0.844 ± 0.016
C[C@]12CCC3=C4CCC(=O)C=C4CC[C@H]3[C@@H]1CC[C@@]2(O)CC#N [Dienogest]	1.25 ± 0.074
CS(=O)(=O)c1ccc(-c2nnc(/C=C/c3nnc(-c4ccc(C#N)cc4)o3)n2-c2ccccc2Cl)nc1	1.08 ± 0.1
c1coc(CNc2ncnc3[nH]cnc23)c1 [Kinetin]	1.07 ± 0.03
COc1cc2ncnc(Nc3cccc(Cl)c3)c2cc1OC [AG-1478 (Tyrphostin AG-1478)]	1.1 ± 0.046
O=c1oc2cc(O)ccc2s1 [Tioxolone]	0.895 ± 0.016
O=c1ccn([C@@H]2O[C@H](CO)[C@@H](O)[C@H]2O)c(=O)[nH]1 [Uridine]	1.23 ± 0.079
CC(C)n1c(/C=C/C(O)CC(O)CC(=O)O)c(-c2ccc(F)cc2)c2ccccc21 (centres undefined) [Fluvastatin Sodium]	0.89 ± 0.063
CCCCNc1cc(C(=O)O)cc(S(N)(=O)=O)c1Oc1ccccc1 [Bumetanide]	1.44 ± 0.035
COC(=O)Nc1ccc(-c2nc(N3CCOCC3)c3cnn(C4CCN(C(=O)OC)CC4)c3n2)cc1	0.785 ± 0.018
CNC[C@H](O)[C@@H](O)[C@H](O)[C@H](O)CO [Meglumine]	1.029 ± 0.0058
COC(=O)N[C@H](C(=O)N[C@@H](Cc1ccccc1)[C@@H](O)CN(Cc1ccc(-c2ccccn2)cc1)NC(=O)[C@@H](NC(=O)OC)C(C)(C)C)C(C)(C)C [Atazanavir Sulfate]	1.08 ± 0.11
CCC[S+]([O-])c1ccc2[nH]c(NC(=O)OC)nc2c1 (centres undefined) [Albendazole Oxide]	1.01 ± 0.017
NC(=O)OCC(COC(N)=O)c1ccccc1 [Felbamate]	1.18 ± 0.17
Cc1ccnc(NS(=O)(=O)c2ccc(N)cc2)n1 [Sulfamerazine]	1.04 ± 0.14
OC(CC1c2ccccc2-c2cncn21)C1CCCCC1 (centres undefined)	1.13 ± 0.055
COc1ccc(C[C@H](N)C(=O)N[C@H]2[C@@H](O)[C@H](n3cnc4c(N(C)C)ncnc43)O[C@@H]2CO)cc1 [Puromycin 2HCl]	0.249 ± 0.0061

Structure (SMILES)	relative cell viability
O=C(O)Cc1cccc(OCCCN(Cc2cccc(C(F)(F)F)c2Cl)CC(c2ccccc2)c2ccccc2)c1	1.01 ± 0.068
C[C@]1(c2nc3c(C(N)=O)cccc3[nH]2)CCCN1 [Veliparib (ABT-888)]	0.754 ± 0.25
CC(=O)N[C@@H](CS)C(=O)O [Acetylcysteine]	1.1 ± 0.052
COc1cc(C2Oc3cc([C@H]4Oc5cc(O)cc(O)c5C(=O)[C@@H]4O)ccc3OC2CO)ccc1O (some centres undefined) [Silibinin]	1.08 ± 0.031
COc1cc(C2Oc3cc([C@H]4Oc5cc(O)cc(O)c5C(=O)[C@@H]4O)ccc3OC2CO)ccc1O (some centres undefined) [Silymarin]	0.988 ± 0.13
O=c1cc(-c2ccccc2)oc2cc(O)c(O)c(O)c12 [Baicalein]	0.838 ± 0.18
CC[C@H](C)C(=O)O[C@H]1C[C@@H](C)C=C2C=C[C@H](C)[C@H](CC[C@@H]3C[C@@H](O)CC(=O)O3)[C@H]21 [Lovastatin]	0.991 ± 0.077
Clc1ccc(C(Cn2ccnc2)OCc2ccc(Sc3ccccc3)cc2)c(Cl)c1 (centres undefined) [Fenticonazole Nitrate]	0.793 ± 0.015
CCN(CC)CCOC(=O)c1ccc(N)cc1 [Procaine HCl]	1.23 ± 0.16
O=C1CCC[C@@H]2[C@H]3CCC[N+]4([O-])CCC[C@@H](CN12)[C@@H]34 (some centres undefined) [Oxymatrine]	1.18 ± 0.025
COc1cccc2cc(-c3nc([C@H]4CC[C@H](C(=O)O)CC4)n4ncnc(N)c34)[nH]c12	0.747 ± 0.029
C[C@@H]1O[C@@H](OC[C@H]2O[C@@H](Oc3c(-c4ccc(OCCO)c(OCCO)c4)oc4cc(OCCO)cc(O)c4c3=O)[C@H](O)[C@@H](O)[C@@H]2O)[C@H](O)[C@H](O)[C@H]1O [Troxerutin]	1.11 ± 0.042
CCN(CC)C(=O)/C(C#N)=C/c1cc(O)c(O)c([N+](=O)[O-])c1 [Entacapone]	0.775 ± 0.061
N#Cc1ccc(COC[C@H]2O[C@@H](n3c(NCc4ccc(Cl)c(Cl)c4)nc4c(N)ncnc43)[C@H](O)[C@@H]2O)cc1	0.939 ± 0.0025
C[C@]12C=CC(=O)C=C1CC[C@H]1[C@@H]3C[C@@H](O)[C@](O)(C(=O)CO)[C@@]3(C)C[C@H](O)[C@@]12F [Triamcinolone]	1.06 ± 0.053
CC1(C)O[C@@H]2C[C@H]3[C@@H]4CCC5=CC(=O)CC[C@]5(C)[C@@]4(F)[C@@H](O)C[C@]3(C)[C@]2(C(=O)CCl)O1 [Halcinonide]	0.905 ± 0.0084
CC(=O)O[C@H]1C[C@@H]2CC[C@@H]3[C@H](CC[C@@]4(C)[C@H]3C[C@H]([N+]3(C)CCCCC3)[C@@H]4OC(C)=O)[C@@]2(C)C[C@@H]1N1CCCCC1 [Vecuronium Bromide]	1.38 ± 0.14
C[C@@H](O)[C@H]1C(=O)N2C(C(=O)O)=C(S[C@@H]3CN[C@H](C(=O)N(C)C)C3)[C@H](C)[C@H]12 [Meropenem]	1.15 ± 0.065
Cn1nnc(-c2ccc3c(c2)[nH]c2nc(Cc4ccccc4)nc(NC4CCC(N)CC4)c23)n1 (centres undefined)	1.18 ± 0.092
CN(C)Cc1cccc(N=C(c2ccccc2)c2c(O)[nH]c3cc(C(=O)N(C)C)ccc23)c1	1.1 ± 0.2
CC[C@H]1OC(=O)C[C@@H](O)[C@H](C)[C@@H](O[C@@H]2O[C@H](C)[C@@H](O)[C@H](N(C)C)[C@H]2O)[C@@H](CCN2C[C@H](C)C[C@H](C)C2)C[C@@H](C)C(=O)/C=C/C(C)=C/[C@@H]1CO[C@@H]1O[C@H](C)[C@@H](O)[C@@H](OC)[C@H]1OC [Tilmicosin]	1.29 ± 0.055
CCc1c(O)cc(O)c(C(=O)c2ccc(OCCN3CCOCC3)c(OC)c2)c1CC(=O)N(CCOC)CCOC	0.613 ± 0.011
CNCCCC12CCC(c3ccccc31)c1ccccc12 [Maprotiline HCl]	1.14 ± 0.1
Cc1coc2c1C(=O)C(=O)c1c-2ccc2c1CCCC2(C)C [Tanshinone IIA]	0.283 ± 0.084
